Reference: article PMC4336329 (PLoS ONE, 2015)
Hit rate of the full screen: of about 310,000 compounds, about 14,000 (4.5%) showed an effect of 50% or more. The effect is printed as a negative number. This is one part of the list.

Biological target: human ether-à-go-go-related gene (hERG) potassium channel (human, UniProt Q12809)
Experiment: primary screen, population patch clamp on CHO cells stably expressing hERG
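Note: peak tail current of the secondary pulse compared with the same well before compound.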

Sequence of human ether-à-go-go-related gene (hERG) potassium channel (Q12809 whole entry, looked up): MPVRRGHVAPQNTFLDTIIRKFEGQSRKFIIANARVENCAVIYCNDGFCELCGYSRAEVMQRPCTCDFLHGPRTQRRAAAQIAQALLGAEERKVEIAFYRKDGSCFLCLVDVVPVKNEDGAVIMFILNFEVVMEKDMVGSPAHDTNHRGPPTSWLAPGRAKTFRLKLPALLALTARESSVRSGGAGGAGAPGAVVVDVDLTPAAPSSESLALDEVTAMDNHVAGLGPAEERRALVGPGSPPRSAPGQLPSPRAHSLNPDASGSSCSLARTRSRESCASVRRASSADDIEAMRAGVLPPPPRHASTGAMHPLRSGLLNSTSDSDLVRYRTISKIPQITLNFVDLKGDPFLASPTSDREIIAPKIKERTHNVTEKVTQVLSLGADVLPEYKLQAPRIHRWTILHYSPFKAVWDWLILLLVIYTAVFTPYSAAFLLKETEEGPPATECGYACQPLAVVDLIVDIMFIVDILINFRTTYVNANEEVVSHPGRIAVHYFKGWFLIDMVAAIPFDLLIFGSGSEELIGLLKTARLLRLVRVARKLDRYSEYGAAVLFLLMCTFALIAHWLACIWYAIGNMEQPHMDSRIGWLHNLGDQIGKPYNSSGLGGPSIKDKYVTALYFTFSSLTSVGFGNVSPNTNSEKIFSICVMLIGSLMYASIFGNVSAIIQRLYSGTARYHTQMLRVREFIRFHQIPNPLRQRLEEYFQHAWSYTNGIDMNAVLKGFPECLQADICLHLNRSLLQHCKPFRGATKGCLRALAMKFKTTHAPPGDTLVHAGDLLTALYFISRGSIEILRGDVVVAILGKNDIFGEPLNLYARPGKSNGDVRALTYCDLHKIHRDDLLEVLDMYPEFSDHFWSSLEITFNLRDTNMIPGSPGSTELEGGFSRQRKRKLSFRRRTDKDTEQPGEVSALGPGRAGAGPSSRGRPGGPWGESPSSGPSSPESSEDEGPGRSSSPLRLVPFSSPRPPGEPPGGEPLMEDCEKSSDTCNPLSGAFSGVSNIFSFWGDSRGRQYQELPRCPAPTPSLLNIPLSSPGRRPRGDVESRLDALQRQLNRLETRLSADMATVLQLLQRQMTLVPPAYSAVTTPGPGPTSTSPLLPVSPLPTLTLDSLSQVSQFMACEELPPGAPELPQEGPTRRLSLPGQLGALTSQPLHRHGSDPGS

Structure (SMILES)	hERG current change (%, negative = inhibition) at 10uM
O=C(Nc1cccnc1)c1cc(-c2ccc(Cl)cc2)on1	12.7%
CN(C=C1C(=O)CC(C)(C)CC1=O)CCN1CCNCC1	-1.79%
Cc1ccc(NC(=O)c2cc(-c3ccccc3O)n[nH]2)cc1Cl	2.39%
CCc1cccc(CC)c1NC(=O)Cn1c(-c2ccc(F)cc2)noc1=O	24.2%
COc1ccc(/C=N/OC(=O)Nc2ccccc2)cc1[N+](=O)[O-]	-58.4%
CC(=O)Nc1ccc(/C=N/NC(=O)CNC(=O)c2ccccc2)cc1	17.6%
CC12CN3CCN(CC(C3)C1(O)CN1CCCCC1)C2 (stereo not shown)	3.92%
COc1ccc(C(=O)N(CCc2ccccc2)Cc2cccs2)c(OC)c1	-15.9%
CC(=O)Nc1ccc(CN2CCCC(CO)(Cc3cccc(Cl)c3)C2)cc1 (stereo not shown)	-39.2%
COc1ccc(-c2nc3n(c(=O)c2C#N)CCCS3)cc1	-4.57%
O=C(c1cccn(Cc2cccc(Cl)c2)c1=O)N1CCOCC1	0.239%
N#Cc1ccc(CN2CCN(C(=O)c3ccccc3)CC2)c(Cl)c1	-33.2%
S=C1NCN(CCc2ccccc2)CN1Cc1ccccc1	14.8%
CCCCn1c(O)c(C=Nc2c(C)n(C)n(-c3ccccc3)c2=O)c(=O)[nH]c1=O	4.96%
CCOC(=O)CSc1ccc(-c2nc3ccccc3[nH]2)cn1	-7.44%
FC(F)(F)c1cccc(-c2nc(-c3ccncc3)no2)c1	5.61%
Cc1ccc(S(=O)(=O)N(C)c2ccc(C(=O)NCc3ccccn3)cc2)cc1	-11.7%
CCOc1ccc2nc(N3CCC(C(=O)Nc4nnc(CC)s4)CC3)sc2c1	11.9%
COc1cc(C=C2C(=O)c3ccccc3C2=O)cc(OC)c1OC	22.8%
Fc1cccc(Cl)c1-c1nnc2ccc(C(F)(F)F)cn12	10.9%
CCCCc1nnc(SCc2ccc(OCC)cc2)n1N	0.428%
CC(C)[C@H](NC(=O)NCCc1ccccc1)C(=O)O	9.27%

Structure (SMILES)	hERG current change (%, negative = inhibition) at 10uM
CC(=O)Nc1ccc([C@H]2[C@H](C)CC[C@H]3C(=O)N4[C@@H](CC[C@@H](C)[C@@H]4c4ccc(NC(C)=O)cc4)C(=O)N32)cc1	24.7%
CC1CCN(S(=O)(=O)c2ccc3c(c2)N(CC(=O)N(C)Cc2ccco2)C(=O)CO3)CC1	14.6%
CN1CCN(c2nc3c(c(=O)[nH]c(=O)n3C)n2CCSc2nc3ccccc3s2)CC1	-12.3%
CC(=O)c1cccc(NC(=O)NCc2ccccn2)c1	-5.95%
CCCN(CCC)CCN1C(=O)C2C(C(=O)Nc3ccc(C)cc3)C3C=CC2(O3)C1C(=O)NC1CCCCC1 (stereo not shown)	-30.2%
COc1ccc(C2C(C#N)=C(N)Oc3cc4c(cc32)OCO4)cc1 (stereo not shown)	-9.12%
C/C(=N\Nc1cccc2cccnc12)c1ccc[nH]1	11.6%
Cc1ccc(CN2C(=O)N/C(=C\c3cccn3-c3cccc(C(=O)O)c3)C2=O)cc1	7.47%
CN1CCCN(S(=O)(=O)c2ccc3ccccc3c2)CC1	1.43%
O=P(O)(O)c1ccccc1OCc1ccccc1	-1.55%
O=C(COC(=O)C1=COCCO1)Nc1ccc(F)cc1	-2.97%
COc1ccc(C2Nc3ccccc3C(=O)N2O)cc1CN1CCOCC1 (stereo not shown)	-2.72%
CCC1CCCCN1CCCNC(=O)c1ccc(/C=C2/Sc3ccccc3NC2=O)cc1 (stereo not shown)	-76.9%
O=C(Nc1ccc(CN2CCCCC2)cc1)c1ccc(Br)o1	-33%
Cc1cc(-c2ccccc2)nc(SCC(=O)c2cccc([N+](=O)[O-])c2)n1	-0.365%
C=CCN1C(C(=O)c2ccccc2)=C(OC(=O)COc2ccccc2)c2ccccc2S1(=O)=O	7.6%
O=C(Cn1cnc2c(nnn2Cc2ccccc2)c1=O)c1ccc(Cl)cc1	10%
CCN1C(=O)N[C@@H](c2cccc(C(F)(F)F)c2)[C@H](C(=O)OC)[C@H]1C	-2.23%
O=C(COc1ccc2ccc(=O)oc2c1)Nc1ccc(N2CCOCC2)cc1	3.85%
Cc1ccc(C(=O)COC(=O)c2cn(-c3ccccc3)nc2-c2ccccc2)cc1[N+](=O)[O-]	2.97%
COc1cc(C=O)ccc1OS(=O)(=O)c1ccc(NC(C)=O)cc1	-5.18%
O=C(Nc1ccnn1C1CCN(C(=O)c2ccc(Cl)cc2)CC1)C1CC1	-24.2%

Structure (SMILES)	hERG current change (%, negative = inhibition) at 10uM
CCC(NS(=O)(=O)c1cccs1)c1ccc(C)cc1 (stereo not shown)	2.52%
COc1ccccc1/C=C(\C#N)C(=O)Nc1ccc(S(N)(=O)=O)cc1	24.3%
COc1ccc(C(=O)COC(=O)CCN=C2NS(=O)(=O)c3ccccc32)cc1OC	-32.1%
CC(C)c1ccc(S(=O)(=O)/N=C2/C=C(Sc3ncn[nH]3)C(=O)c3ccccc32)cc1	27.8%
Cc1cccc(C(=O)NNC(=O)CN2C(=O)c3ccccc3C2=O)c1	-6.94%
CC(C)c1nc(-c2ccccc2)c(-c2ccccc2)[nH]1	-6.02%
N#Cc1nc(-c2ccc(F)cc2)oc1N1CCN(C(=O)c2ccco2)CC1	-75.2%
O=C(COC(=O)c1cccs1)NC1CCCC1	17.7%
COc1ccc(/C=C/C(=O)O)cc1S(=O)(=O)N1CCCCC1	21%
COc1ccc(CNCC(=O)Nc2cc(C)nn2-c2nc(C)cc(C)n2)cc1OC	-56.8%
CCCN1CCC(=O)N([C@H](CSc2ccc(Br)cc2)Cc2ccccc2)CC1	-71.2%
CC(=O)N1CCN(C(=S)Nc2ccc(Oc3ccccc3)cc2)CC1	-22.6%
CCCc1cc(NCc2ccccn2)n2c(nc3ccccc32)c1C#N	-3.92%
NC(N)=N/N=C/c1ccc(Cl)cc1Cl	-22.8%
C=CCn1c(SC/C=C/c2ccccc2)nnc1-c1sc(N)nc1C	-12.4%
O=C(CN1C(=O)NC2(CCCCC2)C1=O)NCCC1=CCCCC1	6.02%
O=C(NCc1cccs1)c1cnc2ccccn2c1=O	-14.2%
CC1CC(C)CN(CCCNC(=O)CN2C(=O)CSc3ccc(S(=O)(=O)N4CCOCC4)cc32)C1 (stereo not shown)	15.8%
Cc1nc(C(C)N(C)Cc2nc(-c3ccc4c(c3)OCO4)no2)c(C)s1 (stereo not shown)	5.52%
Cc1cc(NC(=O)CCl)no1	16.6%
CCCCN1C(=O)C(=O)N(c2ccccc2)C1=S	7.88%
Cc1ccc(NC(=O)c2cccc(Oc3ccc([N+](=O)[O-])cc3)c2)c(C(=O)O)c1	4.79%

Structure (SMILES)	hERG current change (%, negative = inhibition) at 10uM
COc1ccccc1/C=N/NC(=O)c1ccc2c(c1)OCO2	7.71%
Cc1c(O)ccc(/C=N/Nc2ncccc2[N+](=O)[O-])c1O	15.5%
CC(=O)OCC1=C(C(=O)O)N2C(=O)C(NC(=O)CCn3nc(C(F)(F)F)c(Br)c3C3CC3)C2SC1 (stereo not shown)	5.62%
O=C(COc1ccc(-n2cnnn2)cc1)N1CCN(c2ccc(F)cc2)CC1	-71.5%
NC(=O)c1ccc(Cl)c2ccccc12	22.3%
COc1cc(NC(=O)c2ccc3nsnc3c2)cc(OC)c1OC	2.2%
O=C(O/N=C1\CCS(=O)(=O)c2sccc21)c1c(F)cccc1F	5.26%
Cc1onc(-c2ccccc2)c1C(=O)N(Cc1ccccc1)C(C)C	-23.4%
O=C(NC(=S)NCc1ccccc1)c1cccnc1	2.67%
COc1ccccc1NC(=O)Cn1cc(C(=O)C2CC2)c2ccccc21	-4.32%
CCc1ccc(NC(=O)CCC(=O)N2CCSc3ccccc32)cc1	-1.57%
COc1ccc(Cl)cc1/C=C/c1ccc2cccc(O)c2n1	15.7%
CC(=O)Nc1ccc(S(=O)(=O)N(Cc2cccnc2)Cc2cc3ccc(C)cc3[nH]c2=O)cc1	18.6%
COc1ccccc1NS(=O)(=O)NC(=O)c1c(C)[nH]c2ccccc12	17.6%
Cc1ccccc1NC(=O)C(=O)NCCCN1CCCC1=O	17.7%
O=S(=O)(NCc1cccnc1)c1ccc(Cl)c2ccccc12	-2.87%
N#Cc1cc(S(=O)(=O)c2ccc(F)cc2)c(N)[nH]c1=O	1.93%
COC1CCN(C(=O)c2ccc3oc(C(C)C)nc3c2)CC1	10.9%
Cc1ccc(-c2cc(-c3ccccc3)cc(-c3ccccc3)[n+]2-c2ccccc2)cc1.[O-][Cl+3]([O-])([O-])[O-]	-82.1%
COc1ccc(Cc2nnc(Nc3ccc(C)cc3)o2)cc1OC	9.6%
CC(=O)N1CCc2cc(S(=O)(=O)NCCC(=O)N3CCN(Cc4ccccc4)CC3)ccc21	-17.3%
CN(C(=O)COC(=O)CNC(=O)C12CC3CC(CC(C3)C1)C2)c1ccccc1	-0.178%
